According to PubChem BioAssay AID504845 (National Center for Advancing Translational Sciences (NCATS), 2011):
The whole screen tested about 390,000 compounds, of which about 150 (0.038%) were called active. The shares of active, inactive and inconclusive entries below differ from those in the screen. Calls come from the whole dose curve; as a rule, active = well fitted inhibition curve with a large enough effect; inconclusive = small, poorly fitted or top-dose-only effect; inactive = no such curve, though single readings can be large or run the other way. Potencies of inconclusive entries are doubtful fits and often do not repeat.

These molecules were tested against Regulator of G-protein signaling 4 (Homo sapiens) (UniProt P49798) (assay: Inhibitors of Regulator of G Protein Signaling (RGS) 4: qHTS). Settings: Transcreener GDP fluorescence polarization, RGS4-accelerated GTP hydrolysis; series mostly up to 114 µM.
Procedure, shortened: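 MLSMR compounds (23 nl, pin-transferred) preincubated 10 min at room temperature with a 500nM (2x) first reagent, then RGS4 at 900nM (2x) plus Transcreener GDP mix added; fluorescence polarization (620/688 nm) read before and after 90 min at 30 °C.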
Note: nearly all actives have a fitted effect of over 75% in size.
Potency is the fitted concentration of half-maximal effect; tags give direction and shape of the fitted curve.

Chain of UniProt P49798 (P49798 whole entry, looked up): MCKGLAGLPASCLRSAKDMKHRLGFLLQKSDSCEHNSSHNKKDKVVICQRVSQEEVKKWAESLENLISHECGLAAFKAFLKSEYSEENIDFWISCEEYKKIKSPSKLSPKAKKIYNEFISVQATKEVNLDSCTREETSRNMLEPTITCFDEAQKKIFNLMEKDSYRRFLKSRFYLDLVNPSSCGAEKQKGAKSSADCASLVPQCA

SMILES	Potency
COc1ccc(C2(CNC(=O)/C=C/c3ccco3)CCCC2)cc1OC	inconclusive: 56.2 µM [inhibitor, partial curve, poor fit]
O=C(Nc1ccccc1)Nc1ccc2nnsc2c1	inconclusive: 100 µM [inhibitor, partial curve, poor fit]
CC(C)Cc1cc(C(=O)Nc2ccc3c(c2)OCO3)no1	inactive
C[C@@H]1C=C(C(=O)NCc2nc3ccccc3[nH]2)O[C@H](OCCCCO)C1	inconclusive: 89.1 µM [inhibitor, single point]
Cn1nnnc1SCCCNCc1cccc(OCc2ccc(F)cc2)c1	inconclusive: 89.1 µM [inhibitor, single point]
N#CC1(NC(=O)CN2C(=O)c3ccccc3C2=O)CCCCC1	inactive
CCCc1nc(SCC(=O)N2CCCC2)c2ccccc2n1	inconclusive: 79.4 µM [inhibitor, single point]
Cc1oc2ccc(OCc3ccc(Br)cc3)cc2c1C(=O)O	inactive
O=C(c1ccc([N+](=O)[O-])cc1)N1CCSC1c1cccc(Cl)c1 (stereo not given)	inconclusive: 50.1 µM [inhibitor, partial curve, poor fit]
CCS(=O)(=O)c1ncc(Cl)c(C(=O)NCc2ccc(OC)cc2)n1	inconclusive: 56.2 µM [inhibitor, partial curve, poor fit]
CC(C)(C)c1ccc(C(=O)CS(=O)(=O)c2ccccc2)cc1	inactive
Cc1cccc2cc(C3CC(c4cccs4)=NN3C(=O)CCC(=O)O)c(Cl)nc12 (stereo not given)	inconclusive: 79.4 µM [inhibitor, partial curve, poor fit]
CC(C)(C)c1nnc(NS(=O)(=O)c2ccc([N+](=O)[O-])cc2)s1	inconclusive: 100 µM [inhibitor, partial curve, poor fit]
CSc1nc(O)c(C(c2ccc(O)cc2)c2c(O)nc(SC)[nH]c2=O)c(=O)[nH]1	inconclusive: 17.8 µM [inhibitor, full curve, poor fit]
Cc1ccc(Sc2cnc(N)nc2C)cc1	inconclusive: 35.5 µM [inhibitor, full curve, poor fit]
O=C(CCCN1C(=O)/C(=C\c2ccco2)SC1=S)Nc1ccc(O)cc1C(=O)O	inconclusive: 50.1 µM [inhibitor, partial curve, poor fit]
COCCNC(=S)NNc1cccc(C(=O)O)c1	inconclusive: 89.1 µM [inhibitor, partial curve, poor fit]
CCOc1ncccc1C(=O)N1CCN(c2cc(Cl)ccc2C)CC1	inconclusive: 79.4 µM [inhibitor, partial curve, poor fit]
O=C(CCc1ccccc1)NNC(=S)NC(=O)c1ccc(Cl)cc1	inconclusive: 44.7 µM [inhibitor, partial curve, poor fit]
CCc1nnc(NC(=O)COc2ccc(N(C)S(=O)(=O)c3ccc(C)cc3)cc2)s1	inconclusive: 79.4 µM [inhibitor, partial curve, poor fit]
Cc1ccc(S(=O)(=O)CCSc2cccc(C(=O)Nc3ccccc3C(=O)O)c2)cc1	inconclusive: 56.2 µM [inhibitor, partial curve, poor fit]
CCn1c(COc2ccc(C)cc2)nnc1SCC(=O)Nc1ccc2c(c1)OCCO2	inactive

SMILES	Potency
Cc1cc(Br)c2c(c1)/C(=C/C(=O)c1cccs1)C(=O)N2	inconclusive: 39.8 µM [inhibitor, partial curve, poor fit]
CN1C(=O)C(O)(CC(=O)c2ccc(F)cc2)c2cc(Br)ccc21 (stereo not given)	inactive
O=C(C/C=N\OCc1ccc([N+](=O)[O-])cc1)Nc1ccc(Cl)cc1	inconclusive: 79.4 µM [inhibitor, single point]
C=CCn1c(=O)c(C(C)=O)cn(N(C)c2ncc(C(F)(F)F)cc2Cl)c1=O	inconclusive: 89.1 µM [inhibitor, single point]
CC1CCN(C(=O)COC(=O)c2cc(Cl)c3c(c2)OCO3)CC1	inconclusive: 79.4 µM [inhibitor, single point]
CCN1CCN(C(c2ccc(SC)cc2)c2c(O)cc(C)n(CCOC)c2=O)CC1 (stereo not given)	inactive
COc1ccc(NC(=O)/C=C/c2ccc(Br)o2)cn1	inconclusive: 17.8 µM [inhibitor, full curve, poor fit]
Cc1ccc(Cl)cc1NC(=O)CCCn1c(=O)c2cccn2c2cccnc21	inactive
CCCC1NC(C(=O)O)Cc2c1[nH]c1ccccc21 (stereo not given)	inconclusive: 79.4 µM [inhibitor, partial curve, poor fit]
COc1ccc(Cl)cc1NC(=O)c1c(NCc2cccnc2)sc2c1CCC(C)C2 (stereo not given)	inconclusive: 56.2 µM [inhibitor, partial curve, poor fit]
CCCOc1ccc(CSc2nc3ccccc3[nH]2)cc1	inactive
COc1ccccc1/C=C/C=N/n1c(-c2cc(C)[nH]n2)n[nH]c1=S	inactive
CC1CCN(C(=O)CSc2nnc(Cc3cccn3C)n2-c2ccc(F)cc2)CC1	inconclusive: 56.2 µM [inhibitor, partial curve, poor fit]
Cc1nc(Nc2ccc(Cl)cc2)c2nnn(Cc3ccccc3)c2n1	inconclusive: 50.1 µM [inhibitor, partial curve, poor fit]
Cc1ccc(C2C(C(N)=S)=C(N)OC3=C2C(=O)CC(C)(C)C3)cc1 (stereo not given)	inconclusive: 28.2 µM [inhibitor, full curve, poor fit]
Cc1ccc(-c2ccc(/C=C3\C(=O)ON=C3c3ccccc3)o2)c([N+](=O)[O-])c1	inconclusive: 35.5 µM [inhibitor, full curve, poor fit]
S=c1[nH]nc(NCCCN2CCOCC2)s1	inconclusive: 44.7 µM [inhibitor, partial curve, poor fit]
COCCn1c(SCC(=O)Nc2cccc(S(N)(=O)=O)c2)nc2cc(Cl)ccc2c1=O	inconclusive: 25.1 µM [inhibitor, full curve, poor fit]
CCOc1ccc(NC(=O)c2oc3ccccc3c2NC(=O)c2ccc(OC)cc2OC)cc1	inactive
Cc1ccc(NC(=O)Cn2nc(Cc3ccncc3)c3ccccc3c2=O)c(Cl)c1	inconclusive: 79.4 µM [inhibitor, partial curve, poor fit]
COCCCNC(=O)c1cc2cc3cc(OC)ccc3nc2o1	inconclusive: 89.1 µM [inhibitor, partial curve, poor fit]
COc1ccc(C)cc1NC(=O)NC1CCN(Cc2ccccc2)CC1	inactive

SMILES	Potency
COC(=O)c1nc(NC(=O)c2ccccc2Cl)n[nH]1	inactive
COC(=O)c1sc(-c2ccc(C(C)(C)C)cc2)cc1NC(=O)/C=C/C(=O)O	inconclusive: 89.1 µM [inhibitor, single point]
O=C1[C@@H]2[C@H](C(=O)N1CC(O)COCc1ccccc1)C1C=C[C@H]2C1 (stereo not given in full)	inactive
CCOC(=O)c1c(NC(=O)C(C)Oc2ccc(Cl)c(C)c2)sc2c1CCCC2 (stereo not given)	inconclusive: 50.1 µM [inhibitor, partial curve, poor fit]
Cc1cccc(NC(=O)CSc2ccc(-c3ccco3)nn2)c1C	inconclusive: 50.1 µM [inhibitor, partial curve, poor fit]
O=C(O)c1cc(-c2ccco2)nc2ccccc12	inconclusive: 56.2 µM [inhibitor, partial curve, poor fit]
O=C1C=C(c2cccc(Cl)c2O)C[C@@H](c2ccc3c(c2)OCO3)C1	inactive
Cc1cccc(N2CCN(C(=O)c3ccc4c(c3)NC(=O)C(CSCc3cccc(F)c3)N4)CC2C)c1 (stereo not given)	inconclusive: 79.4 µM [inhibitor, partial curve, poor fit]
CCc1ccccc1NC(=O)Cc1ccc(-n2cccc2)cc1	inconclusive: 28.2 µM [inhibitor, full curve, poor fit]
O=C(Nc1ccnn1C1CCN(CCCC2CCCC2)CC1)c1ccccc1Cl	inactive
COc1cc(C=O)ccc1OCCCOc1ccccc1C(=O)O	inconclusive: 89.1 µM [inhibitor, single point]
O=C(N/N=C/c1ccccn1)c1cc(-c2ccc3ccccc3c2)n[nH]1	inconclusive: 50.1 µM [inhibitor, partial curve, poor fit]
O=C(CC1SC(=O)N(c2ccccc2)C1=O)Nc1ccccc1 (stereo not given)	inconclusive: 50.1 µM [inhibitor, partial curve, poor fit]
COc1ccc(CNc2ccc([N+](=O)[O-])cc2C)cc1	inconclusive: 50.1 µM [inhibitor, partial curve, poor fit]
O=C(NNC(=O)c1cc2cc3ccccc3nc2s1)c1cccc(C(F)(F)F)c1	inconclusive: 89.1 µM [inhibitor, single point]
CCCCCCCC(=O)OC[C@H](CO)OC(=O)CCCCCCC	inconclusive: 2.12 µM [inhibitor, partial curve, poor fit]
COc1ccc2sc(N(CCN(C)C)C(=O)/C=C/c3cccs3)nc2c1	inactive
COc1ccc(-c2[nH]ncc2CN(CC2CCC(=O)N2)C(C)C)cc1F (stereo not given)	inconclusive: 89.1 µM [inhibitor, partial curve, poor fit]
CN1CCc2cccc3c2[C@@H]1Cc1ccc(O)c(O)c1-3	inactive
CCc1ccc(NC(=O)CCCn2nc(C)c3c(C)n(-c4ccccc4)nc3c2=O)cc1	inactive
C=CCn1c(-c2csc(-c3ccc(Cl)cc3)n2)n[nH]c1=S	inconclusive: 100 µM [inhibitor, partial curve, poor fit]
